# Laboratory results published in the supplement of paper PMC8728848.
# Some of the results follow.
# B1: Tulipa lectin C-1 (Tulipa hybrid) (protein)
# chain: MGMALVVALAVALASTVAGQQNVLLSGNTLANEESLSYGSVKFIMQNDCNLVLYGGGFQSNTASNGKKCTLTLNNNGHLIINDGLTGRVVWRNSNAQNPVGRYAAVLRPAPGTADVAIYGPAIWSTNDEFSYQESGVVPHKLGRETPNLPRMQNLLFSGQTLYGTDGMLSSNDGSTTFELSKCQLSLSLGNEVKWKVAPTVENGKENYCHVRLDHRGHLSLLNDDNVVLFRSIPTNGVEPPIGDYVLIVEKGAGYIYGPPIWNTYDNRRYKVASA
# Key:
# Test in all cases: glycan array binding signal (z-score within array); higher = stronger binding
# Details in all cases: glycan notation: IUPAC condensed, linker removed
# [1] = biological target: Gal(b1-4)GlcNAc(b1-3)[Gal(b1-4)GlcNAc(b1-6)]GalNAc
# In short: (§1)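 Negative Z-scores can be read as non-binding. The Z-score is calculated within each array and then averaged across arrays of one protein sequence at different concentrations or buffers and across linkers. Arrays, 3228 in all, were curated from the Consortium for Functional Glycomics database and kept only where the protein sequence was available.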
# [2] = biological target: Gal(b1-4)GlcNAc(b1-6)GalNAc
# In short: as §1
# [3] = biological target: Gal(b1-4)GlcNAc(b1-6)[Gal(b1-3)]GalNAc
# In short: as §1
# [4] = biological target: Gal(b1-4)GlcNAc(b1-6)[Gal(b1-3)]GlcNAc
# In short: as §1
# Gal3S(b1-3)GalNAc = biological target: Gal3S(b1-3)GalNAc
# In short: as §1
# Gal3S(b1-3)GlcNAc = biological target: Gal3S(b1-3)GlcNAc
# In short: as §1
# [5] = biological target: Gal3S(b1-3)[Fuc(a1-4)]GlcNAc
# In short: as §1
# Gal3S(b1-4)Glc = biological target: Gal3S(b1-4)Glc
# In short: as §1
# Gal3S(b1-4)Glc6S = biological target: Gal3S(b1-4)Glc6S
# In short: as §1
# Gal3S(b1-4)GlcNAc = biological target: Gal3S(b1-4)GlcNAc
# In short: as §1
# Gal3S(b1-4)GlcNAc6S = biological target: Gal3S(b1-4)GlcNAc6S
# In short: as §1
# Gal3S6S(b1-4)GlcNAc = biological target: Gal3S6S(b1-4)GlcNAc
# In short: as §1
# Gal3S6S(b1-4)GlcNAc6S = biological target: Gal3S6S(b1-4)GlcNAc6S
# In short: as §1
# Gal4S(b1-4)GlcNAc = biological target: Gal4S(b1-4)GlcNAc
# In short: as §1
# Gal4S6S(b1-4)GlcNAc = biological target: Gal4S6S(b1-4)GlcNAc
# In short: as §1
# Gal6S(b1-4)Glc = biological target: Gal6S(b1-4)Glc
# In short: as §1
# Gal6S(b1-4)Glc6S = biological target: Gal6S(b1-4)Glc6S
# In short: as §1
# Gal6S(b1-4)GlcNAc = biological target: Gal6S(b1-4)GlcNAc
# In short: as §1
# GalNAc(a1-3)Gal = biological target: GalNAc(a1-3)Gal
# In short: as §1
# GalNAc(a1-3)GalNAc = biological target: GalNAc(a1-3)GalNAc
# In short: as §1
# [6] = biological target: GalNAc(b1-3)Gal(a1-4)Gal(b1-4)GlcNAc
# In short: as §1
# GalNAc(b1-4)GlcNAc = biological target: GalNAc(b1-4)GlcNAc
# In short: as §1
# Glc(a1-4)Glc = biological target: Glc(a1-4)Glc
# In short: as §1
# Glc(a1-6)Glc(a1-6)Glc = biological target: Glc(a1-6)Glc(a1-6)Glc
# In short: as §1
# Glc(b1-4)Glc = biological target: Glc(b1-4)Glc
# In short: as §1
# Glc(b1-6)Glc = biological target: Glc(b1-6)Glc
# In short: as §1
# GlcA(b1-3)Gal = biological target: GlcA(b1-3)Gal
# In short: as §1
# GlcA(b1-6)Gal = biological target: GlcA(b1-6)Gal
# In short: as §1
# [7] = biological target: GlcNAc(a1-3)Gal(b1-4)GlcNAc
# In short: as §1
# [8] = biological target: GlcNAc(a1-6)Gal(b1-4)GlcNAc
# In short: as §1
# [9] = biological target: GlcNAc(b1-2)Gal(b1-3)GlcNAc
# In short: as §1
# [10] = biological target: GlcNAc(b1-2)Man(a1-3)[GlcNAc(b1-2)Man(a1-6)]Man(b1-4)GlcNAc(b1-4)GlcNAc
# In short: as §1
# GlcNAc(b1-3)Gal = biological target: GlcNAc(b1-3)Gal
# In short: as §1
# [11] = biological target: GlcNAc(b1-3)Gal(b1-3)GalNAc
# In short: as §1
# GlcNAc(b1-3)Gal(b1-4)Glc = biological target: GlcNAc(b1-3)Gal(b1-4)Glc
# In short: as §1
# [12] = biological target: GlcNAc(b1-3)Gal(b1-4)GlcNAc
# In short: as §1
# [13] = biological target: GlcNAc(b1-3)Gal(b1-4)GlcNAc(b1-3)Gal(b1-4)GlcNAc
# In short: as §1
# GlcNAc(b1-3)GalNAc = biological target: GlcNAc(b1-3)GalNAc
# In short: as §1
# [14] = biological target: GlcNAc(b1-3)[GlcNAc(b1-4)][GlcNAc(b1-6)]GlcNAc
# In short: as §1
# [15] = biological target: GlcNAc(b1-3)[GlcNAc(b1-6)]Gal(b1-4)GlcNAc
# In short: as §1
# [16] = biological target: GlcNAc(b1-3)[GlcNAc(b1-6)]GlcNAc
# In short: as §1
# [17] = biological target: GlcNAc(b1-4)Gal(b1-4)GlcNAc
# In short: as §1
# [18] = biological target: GlcNAc(b1-4)GlcNAc(b1-4)GlcNAc
# In short: as §1
# [19] = biological target: GlcNAc(b1-4)GlcNAc(b1-4)GlcNAc(b1-4)GlcNAc(b1-4)GlcNAc
# In short: as §1
# [20] = biological target: GlcNAc(b1-4)GlcNAc(b1-4)GlcNAc(b1-4)GlcNAc(b1-4)GlcNAc(b1-4)GlcNAc
# In short: as §1
binder,measurement,setting,value
B1,glycan array binding signal (z-score),[1],-0.131
same,glycan array binding signal (z-score),[2],-0.157
same,glycan array binding signal (z-score),[3],-0.242
same,glycan array binding signal (z-score),[4],-0.225
same,glycan array binding signal (z-score),Gal3S(b1-3)GalNAc,-0.174
same,glycan array binding signal (z-score),Gal3S(b1-3)GlcNAc,-0.18
same,glycan array binding signal (z-score),[5],-0.07
same,glycan array binding signal (z-score),Gal3S(b1-4)Glc,-0.179
same,glycan array binding signal (z-score),Gal3S(b1-4)Glc6S,-0.182
same,glycan array binding signal (z-score),Gal3S(b1-4)GlcNAc,-0.154
same,glycan array binding signal (z-score),Gal3S(b1-4)GlcNAc6S,-0.206
same,glycan array binding signal (z-score),Gal3S6S(b1-4)GlcNAc,-0.168
same,glycan array binding signal (z-score),Gal3S6S(b1-4)GlcNAc6S,-0.02
same,glycan array binding signal (z-score),Gal4S(b1-4)GlcNAc,-0.184
same,glycan array binding signal (z-score),Gal4S6S(b1-4)GlcNAc,-0.176
same,glycan array binding signal (z-score),Gal6S(b1-4)Glc,-0.189
same,glycan array binding signal (z-score),Gal6S(b1-4)Glc6S,0.244
same,glycan array binding signal (z-score),Gal6S(b1-4)GlcNAc,-0.12
same,glycan array binding signal (z-score),GalNAc(a1-3)Gal,-0.199
same,glycan array binding signal (z-score),GalNAc(a1-3)GalNAc,-0.164
same,glycan array binding signal (z-score),[6],-0.223
same,glycan array binding signal (z-score),GalNAc(b1-4)GlcNAc,-0.123
same,glycan array binding signal (z-score),Glc(a1-4)Glc,-0.205
same,glycan array binding signal (z-score),Glc(a1-6)Glc(a1-6)Glc,-0.187
same,glycan array binding signal (z-score),Glc(b1-4)Glc,-0.208
same,glycan array binding signal (z-score),Glc(b1-6)Glc,-0.219
same,glycan array binding signal (z-score),GlcA(b1-3)Gal,-0.191
same,glycan array binding signal (z-score),GlcA(b1-6)Gal,-0.196
same,glycan array binding signal (z-score),[7],-0.207
same,glycan array binding signal (z-score),[8],-0.237
same,glycan array binding signal (z-score),[9],-0.232
same,glycan array binding signal (z-score),[10],4.39
same,glycan array binding signal (z-score),GlcNAc(b1-3)Gal,-0.202
same,glycan array binding signal (z-score),[11],-0.133
same,glycan array binding signal (z-score),GlcNAc(b1-3)Gal(b1-4)Glc,-0.233
same,glycan array binding signal (z-score),[12],-0.23
same,glycan array binding signal (z-score),[13],-0.239
same,glycan array binding signal (z-score),GlcNAc(b1-3)GalNAc,-0.135
same,glycan array binding signal (z-score),[14],-0.208
same,glycan array binding signal (z-score),[15],-0.244
same,glycan array binding signal (z-score),[16],-0.218
same,glycan array binding signal (z-score),[17],-0.214
same,glycan array binding signal (z-score),[18],-0.216
same,glycan array binding signal (z-score),[19],-0.241
same,glycan array binding signal (z-score),[20],-0.214
